# Over roughly 33,000 sequences, “E-score (-0.5 to 0.5)” has its median near -0.021; the highest 2% begin near 0.32. Some of the results follow.
# Molecular target: T1, Zap1 (UniProt P47043)
# T1 sequence: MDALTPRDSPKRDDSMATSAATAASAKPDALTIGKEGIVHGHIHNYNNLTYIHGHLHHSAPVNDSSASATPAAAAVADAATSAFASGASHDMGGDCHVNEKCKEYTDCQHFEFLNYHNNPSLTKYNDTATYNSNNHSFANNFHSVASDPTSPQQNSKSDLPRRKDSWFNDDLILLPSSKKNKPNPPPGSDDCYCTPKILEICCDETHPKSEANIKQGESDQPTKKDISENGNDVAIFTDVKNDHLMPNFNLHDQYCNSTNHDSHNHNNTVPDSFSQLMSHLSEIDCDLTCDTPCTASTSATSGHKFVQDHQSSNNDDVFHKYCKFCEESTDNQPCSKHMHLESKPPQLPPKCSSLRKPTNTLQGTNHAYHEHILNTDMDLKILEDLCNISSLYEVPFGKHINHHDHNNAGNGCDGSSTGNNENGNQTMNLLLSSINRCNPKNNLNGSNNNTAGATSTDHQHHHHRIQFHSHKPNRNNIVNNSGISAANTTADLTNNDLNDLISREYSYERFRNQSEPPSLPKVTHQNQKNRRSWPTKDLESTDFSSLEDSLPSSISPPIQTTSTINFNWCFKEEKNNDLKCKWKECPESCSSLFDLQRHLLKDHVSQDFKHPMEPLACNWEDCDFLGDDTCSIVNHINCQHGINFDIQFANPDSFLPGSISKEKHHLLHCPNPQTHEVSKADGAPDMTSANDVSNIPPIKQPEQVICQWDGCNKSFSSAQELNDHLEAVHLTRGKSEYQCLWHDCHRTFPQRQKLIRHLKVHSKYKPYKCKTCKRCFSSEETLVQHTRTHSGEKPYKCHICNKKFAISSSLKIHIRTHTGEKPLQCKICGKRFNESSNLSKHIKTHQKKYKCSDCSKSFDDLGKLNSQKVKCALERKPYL
# Test: PBM E-score (8-mer binding enrichment) (E-score (-0.5 to 0.5)); higher = stronger / more preferred TF binding; most listed sequences are background and not binding sites
# Settings: protein concentration: 200 nM; construct: GST-full length
# Procedure: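 Universal 'all 10-mer' protein binding microarrays (Agilent AMADID 015681) probed with GST-tagged S. cerevisiae TFs (full-length or DBD) made by in vitro transcription/translation (PURExpress), about 100-200 nM. Bound TF was detected with fluorescent anti-GST. Each ungapped 8-mer (which stands for itself and its reverse complement) is scored by the PBM enrichment score (E-score), a modified Wilcoxon-Mann-Whitney statistic from -0.5 to +0.5, computed with the Universal PBM Analysis Suite. Scale: above 0.35 generally sequence-specific binding.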
row,Sequence,PBM E-score
1,TGTAAACA,0.122
2,CGGGAAAG,-0.321
3,ACGGTCAT,0.359
4,CTTCTGTC,-0.109
5,CTCTGACC,0.057
6,ACATGTAC,-0.00528
7,CGCATTTC,0.0517
8,GCATACCA,-0.0787
9,ACCCCCGA,-0.071
10,ACCCATGA,0.176
11,ACGGATGC,-0.0525
12,TGGATCAA,-0.0172
13,CCAAATCA,0.0196
14,GGGAACTA,0.00638
15,GGACGTAA,-0.0324
16,CACGGAGC,-0.205
17,AGAGTGGC,-0.141
18,GGCTCCAA,-0.152
19,GATGAAGA,-0.157
20,GAGCCCGC,-0.354
21,ATCGCATC,-0.0331
22,CAGTCGAC,0.104

row,Sequence,PBM E-score
1,ATAGACCC,0.155
2,AGTCTGTA,-0.0875
3,ATAATGAC,-0.168
4,AGGTTGAG,0.0807
5,TGTCCGAA,0.0316
6,AACTTCGC,0.011
7,CTGCGCCA,-0.151
8,ACAGGAGC,-0.122
9,CTGTTTTC,-0.0833
10,AACCTCTA,0.351
11,GTGCGGTA,0.217
12,CCAGCAGG,-0.111
13,CTTACTCA,-0.219
14,AGTAGAGC,-0.211
15,AGCTCAAT,-0.092
16,AACTGGAG,-0.103
17,AGGTCTGC,-0.175
18,AACGTATC,-0.187
19,CCGGTACC,0.414
20,ATAGAAAC,0.185
21,GTAAGGAC,-0.0105
22,AAGAGCTT,-0.0703

row,Sequence,PBM E-score
1,GTAACGGA,0.0778
2,GTTTAAAC,0.222
3,ACAGGACG,-0.215
4,AATACTAC,0.198
5,AGTAGACG,0.0189
6,ACGCTATC,-0.235
7,GAAGTGTA,-0.204
8,CCTCCGTC,-0.107
9,GATTCCAA,0.0755
10,ATACTATC,-0.167
11,GCGTGCCA,-0.242
12,CCCAGGAC,-0.0256
13,CGTGTAAG,-0.0832
14,TATGACCA,0.288
15,CGTCGTCA,-0.135
16,TCGAACCA,0.118
17,GCAAGAGA,-0.213
18,ACCGATTC,-0.14
19,GGCGGTTA,0.324
20,GCTCGTAC,-0.135
21,CATCTGAA,0.0186
22,GAATCATC,-0.234

row,Sequence,PBM E-score
1,AGTCAGGC,-0.101
2,ATAGACTG,-0.205
3,CGAAACTC,-0.114
4,AAGGATCT,-0.154
5,CCGGAACG,-0.179
6,AGCAGGAA,-0.0425
7,CTGTGATA,-0.0164
8,ATCCGAAT,0.151
9,AGGCTGGG,-0.0166
10,ACCTCTAA,0.285
11,AATACATG,-0.136
12,CGATATTC,-0.0428
13,TGTATTAA,0.223
14,ACGACCAG,0.0603
15,CTGTGGTC,0.123
16,AGCATTAA,-0.0721
17,AAACCCCA,0.261
18,ACGCGCGC,0.136
19,CTATCAGA,-0.0946
20,ACAACTAC,0.126
